From PubChem BioAssay (NCI)
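48-hour exposure; five concentrations; linearly interpolated endpoints. GI50: concentration for 50% inhibition of growth. TGI marks complete inhibition of growth.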

The molecules below were run on NCI-H322M lung (assay: NCI-60 cell line screen, 48 h).

Going from O=C(N/N=C/c1c[nH]c2ccccc12)Nc1ccc(F)c(Cl)c1 to COc1ccc2cc([C@H](C)C(=O)[Se]CCC#N)ccc2c1, the GI50 falls from 15.2 µM to 2.08 µM (7.3-fold).

Compared with CCC[Se]C(=O)c1ccc(C(=O)[Se]CCC)s1, CN(C)c1nc(NCCNS(=O)(=O)c2ccc(C3=Nc4c(N)nc(N)nc4NC(c4ccc(C(F)(F)F)cc4)C3)cc2)nc(Nc2ccc(F)cc2)n1 (stereo not given) is higher in GI50: less than 0.01 µM for the first, 42.5 µM for the second.

FC(F)(F)c1cc2c(Cl)ncnc2n1CCN1CCOCC1 gave a GI50 of 16 µM.

First: O=C(N/N=C/c1c[nH]c2ccccc12)Nc1ccc(F)c(Cl)c1
Second: COc1ccc2cc([C@H](C)C(=O)[Se]CCC#N)ccc2c1
The TGI of the first is 5.1-fold higher: 29.6 µM for the first, 5.86 µM for the second.

Compared with CCC[Se]C(=O)c1ccc(C(=O)[Se]CCC)s1, CN(C)c1nc(NCCNS(=O)(=O)c2ccc(C3=Nc4c(N)nc(N)nc4NC(c4ccc(C(F)(F)F)cc4)C3)cc2)nc(Nc2ccc(F)cc2)n1 (stereo not given) is higher in TGI: 0.311 µM for the first, greater than 86 µM for the second.

Work on FC(F)(F)c1cc2c(Cl)ncnc2n1CCN1CCOCC1 yielded a TGI of 54 µM.
